The target in test [1] is T1, Human Ang1 (human, UniProt Q15389). The test can be described thus: angiopoietin:Tie2 neutralization assays (Tables 10 and 11); reference Ang2.
For test [2], the target named is biotinylated human angiopoietin 1 (human, UniProt Q15389, biotin). Briefly: angiopoietin:Tie2 neutralization HTRF; biotin-hAng1 vs Tie2-APC.
The target of test [3] is Human Ang2 (human, UniProt O15123). The test can be described thus: angiopoietin:Tie2 neutralization ELISA; coated angiopoietin vs hTie2-Fc.
In test [4] the target is Murine Ang1 (mouse, UniProt O08538). Described as above.
Test [5] deals with Cyno Ang2 (cynomolgus monkey, UniProt A0A2K5VNX6). The description is as above.
Test [6] concerns the target Murine Ang2 (mouse, UniProt O35608). The test is described as above.
The target in test [7] is T1, Human Ang1. The description is as above.
Test [8] addresses Rabbit Ang1 (rabbit, UniProt G1SK98). Described as above.
Test [9] has as its target Cyno Ang1 (cynomolgus monkey, UniProt A0A2K5VW43). The test is described as above.
In test [10] the target is biotinylated human angiopoietin 2 (human, UniProt O15123, biotin). The test can be described thus: angiopoietin:Tie2 neutralization HTRF; biotin-hAng2 vs Tie2-APC.

B1: mL4-3 (Fc fusion)
chain: MREWTEEMQVIFDAMMFGPRNDRGGSGSATGSGSTASSGSGSATHREWTEEMQVIFDAMMFGPRNDRGGGGG[sequence of human IgG1 Fc omitted]
With B1, in test [1], the “fold selectivity over Ang2” value was over 40000 fold. Also, the IC50 was 0.022 nM in test [2]; 1880 nM in test [3]; 0.033 nM in test [4]; 1890 nM in test [5]; over 10000 nM in test [6]; 0.045 nM in test [7]. Moreover, the IC50 is 0.061 nM in test [8], 0.039 nM in test [9] and 3080 nM in test [10].

These data come from US8030025B2, “Antibodies directed to angiopoietin-1 and angiopoietin-2 and uses thereof” (Amgen Inc., dated 2011).
